From the supplement of paper PMC9334596
Several values for one entry are separate records, joined by “and”; a condition that tells them apart may be missing. Equal entries are not always repeated. In all, about 5,300 compounds were measured (“PER2::LUC luminescence relative to vehicle control”: median about 0.96, highest 2% from about 1.3 on). Some of the results follow.

System: mPer2Luc MEF
Test: PER2::LUC luminescence relative to vehicle control (fold of vehicle); higher = higher PER2::LUC reporter signal
Settings: 10 µM
Outline: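 The value is PER2::LUC luminescence expressed as fold of vehicle control. Mouse embryonic fibroblasts carrying the mPer2Luc reporter were seeded at ~3000 cells per well in 384-well plates and grown in DMEM with 10% FBS at 37 °C and 5% CO2. Compounds from commercial libraries were added at 10 μM 48 h after seeding, and luminescence was read with the ONE-Glo luciferase assay system 24 h and 30 h after treatment, followed by an alamarBlue viability assay.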

Row | SMILES | PER2::LUC luminescence (time after treatment 24 h) | PER2::LUC luminescence (time after treatment 30 h)
1 | CN1CC[C@]2(c3cccc(O)c3)Cc3nc4ccccc4cc3C[C@H]2C1 | 1.02 | 1.01
2 | CC(NC(=O)C(N)Cc1ccc(O)cc1)C(=O)NC(Cc1ccccc1)C(=O)NC(Cc1ccccc1)C(N)=O (configuration not stated) | 1.06 | 1.03
3 | COc1cc2cc(c1Cl)N(C)C(=O)C[C@H](OC(=O)[C@H](C)N(C)C(=O)CCS)[C@]1(C)O[C@H]1[C@H](C)[C@@H]1C[C@@](O)(NC(=O)O1)[C@H](OC)/C=C/C=C(\C)C2 | 0.314 | 0.438
4 | NCC(CP(=O)(O)O)c1ccc(Cl)cc1 (configuration not stated) | 1 | 0.976
5 | c1ccc(C2CC2)c(OCC2=NCCN2)c1 | 1.01 | 0.882
6 | CN1[C@@H]2CC[C@H]1C[C@@H](OC(c1ccccc1)c1ccccc1N)C2 (some centres not stated) | 0.825 | 1
7 | CNC(C)(C)Cc1ccccc1 | 1.05 | 0.849
8 | CCOP(=S)(OCC)Oc1cc(C)nc(C(C)C)n1 | 0.901 and 0.93 | 1.01 and 0.921
9 | OC(O)C(Cl)(Cl)Cl | 0.989 | 1.14
10 | C[C@]12CCC(=O)C(O)=C1CC[C@@H]1[C@@H]2CC[C@]2(C)C(=O)CC[C@@H]12 | 0.881 | 1.12
11 | NNC(=O)c1nn(Cc2ccc(Cl)cc2Cl)c2ccccc12 | 0.998 | 1.02
12 | c1ccc(CCCN2CCN(CCOC(c3ccccc3)c3ccccc3)CC2)cc1 | 0.768 and 0.672 and 0.629 | 0.772 and 0.631 and 0.562
13 | CC(C)C[C@H]1C(=O)N2CCC[C@H]2[C@]2(O)O[C@](NC(=O)[C@@H]3C=C4c5cccc6[nH]c(Br)c(c56)C[C@H]4N(C)C3)(C(C)C)C(=O)N12 | 0.988 and 0.778 | 0.976 and 0.802
14 | O=C(OC1CCN(CCCl)CC1)C(c1ccccc1)c1ccccc1 | 0.819 | 0.848
15 | CCCC[C@@H](C)[C@@H](OC(=O)C[C@@H](CC(=O)O)C(=O)O)[C@H](C[C@@H](C)CCCCCC[C@@H](O)C[C@H](O)[C@H](C)N)OC(=O)C[C@@H](CC(=O)O)C(=O)O | 1.01 | 0.952
16 | C=CCN1CC[C@]23c4c5ccc(O)c4O[C@H]2/C(=N/N=C2\CC[C@@]4(O)[C@H]6Cc7ccc(O)c8c7[C@@]4(CCN6CC=C)[C@H]2O8)CC[C@@]3(O)[C@H]1C5 | 1 | 1.03
17 | COc1cc(C(O)CN)ccc1O (racemic) | 1.02 | 0.892
18 | C[C@]12CCC(=O)C=C1CC[C@@H]1[C@@H]2CC[C@@]2(C)[C@H]1CC[C@]2(C)O | 0.954 and 0.937 | 1.09 and 0.907
19 | CN1[C@@H]2CC[C@H]1C[C@@H](OC(=O)C(CO)c1ccccc1)C2 (some centres not stated) | 0.917 and 0.97 and 0.833 | 1.03 and 0.929 and 0.942
20 | CCOc1ccccc1-n1c(C(C)N2CCN(C(=O)COc3ccc(Cl)cc3)CC2)nc2ccccc2c1=O (configuration not stated) | 1.17 | 1.09
21 | C[C@@H]1CC[C@H]2[C@H](C)[C@H]3CC[C@@]4(O)[C@@H]5CC(=O)[C@H]6CC(=O)CC[C@]6(C)[C@H]5C[C@H]4[C@@H]3CN2C1 | 0.961 | 1
22 | CC(C)NCC(O)c1ccc(N)c(C#N)c1 (configuration not stated) | 1.07 | 0.977
23 | C[C@H]1CC[C@@H]2N(C1)C[C@H]1[C@@H]3C[C@H]4[C@@H](CC(=O)[C@H]5C[C@@H](O)CC[C@@]54C)[C@@H]3CC[C@H]1[C@]2(C)O | 0.88 | 0.989
24 | CNCC(O)c1ccc(O)cc1 (configuration not stated) | 1 and 1.06 and 0.997 | 1.08 and 1.01 and 0.984
25 | CCC1=C[C@H]2CN3CCc4c([nH]c5ccccc45)[C@](C(=O)OC)(C2)[C@H]13 | 1.01 | 0.824
26 | CN[C@@H]1[C@@H](O)[C@@H](O[C@@H]2[C@@H](O)[C@H](O[C@H]3O[C@H]([C@@H](C)O)[C@@H](O)[C@H](O)[C@H]3N)[C@@H](N)C[C@H]2N)OC[C@]1(C)O | 0.978 | 0.919
